Reference: patent US20190240289A1 (Pieris, published 2019)
Changes are numbered by the printed parent chain.

T1: IL-4 receptor alpha on TF-1 cells (human, UniProt P24394 26-825)
T1 sequence: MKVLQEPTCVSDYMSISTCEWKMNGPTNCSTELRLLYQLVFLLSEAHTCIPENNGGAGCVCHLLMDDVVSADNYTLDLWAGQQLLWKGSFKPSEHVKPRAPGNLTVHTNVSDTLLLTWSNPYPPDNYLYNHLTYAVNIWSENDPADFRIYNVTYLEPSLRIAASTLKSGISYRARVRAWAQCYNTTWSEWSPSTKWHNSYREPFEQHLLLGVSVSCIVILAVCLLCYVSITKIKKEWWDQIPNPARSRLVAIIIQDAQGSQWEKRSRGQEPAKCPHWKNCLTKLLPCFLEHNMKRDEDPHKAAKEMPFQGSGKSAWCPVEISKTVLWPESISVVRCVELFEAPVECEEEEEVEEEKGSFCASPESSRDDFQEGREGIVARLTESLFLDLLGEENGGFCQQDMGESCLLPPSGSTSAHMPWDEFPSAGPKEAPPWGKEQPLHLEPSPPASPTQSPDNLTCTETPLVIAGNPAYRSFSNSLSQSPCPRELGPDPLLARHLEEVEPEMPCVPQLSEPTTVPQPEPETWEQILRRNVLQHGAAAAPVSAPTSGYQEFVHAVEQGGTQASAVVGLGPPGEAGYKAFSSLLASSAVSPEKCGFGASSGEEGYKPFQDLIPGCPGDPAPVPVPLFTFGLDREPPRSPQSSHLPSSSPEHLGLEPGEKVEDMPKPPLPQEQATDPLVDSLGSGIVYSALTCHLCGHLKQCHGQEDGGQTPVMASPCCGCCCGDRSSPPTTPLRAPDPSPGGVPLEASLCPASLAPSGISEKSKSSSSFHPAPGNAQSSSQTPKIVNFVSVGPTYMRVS

T2: IL-4 receptor alpha (human, UniProt P24394 26-232, limits assumed)
T2 construct: The target as named in the worded statements; also called interleukin-4 receptor alpha chain
T2 sequence: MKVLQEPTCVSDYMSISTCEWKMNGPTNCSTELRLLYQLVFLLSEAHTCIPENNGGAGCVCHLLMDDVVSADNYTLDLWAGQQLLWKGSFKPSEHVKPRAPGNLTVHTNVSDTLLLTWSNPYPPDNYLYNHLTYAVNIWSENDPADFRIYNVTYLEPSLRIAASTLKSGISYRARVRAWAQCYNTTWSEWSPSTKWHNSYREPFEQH

T3: IL-4 receptor alpha-Fc (R&D Systems) (human, UniProt P24394 26-232)
T3 construct: not shown: Fc part of the bought fusion protein; It was captured by an anti human-Fc antibody
T3 sequence: T2 sequence

B1: S276.2 K04 (designed binder)
chain: ASDEEIQDVSGTWYLKAMTVDPRCPRAYYSSVTPMTLTTLEGGNLEAKFTAQRSGRWQKYKLVLEKTDEPGKYTASGGRHVAYIIRSHVKDHYIFHSEGLCPGQPVPGVWLVGRDPKNNLEALEDFEKAAGARGLSTESILIPRQSETSSPGSA
B2: S308.3O10 (designed binder)
chain: B1 chain with P22K, S30R, Q52K, S54N, K59P
notes: also called S308.3 010
B3: S308.5 F08 (designed binder)
chain: B1 chain with P22S, Y28V, S30N, S54K
B4: S308.5 L04 (designed binder)
chain: B1 chain with P22S, S30V, Q52A, S54I, K59S
B5: S191.4-B24 (designed binder)
chain: B1 chain with P22S, K59E
B6: S308.5 L20 (designed binder)
chain: B1 chain with P22N, Y28K, S30D, Q52H, S54R, K59Q
B7: S308.5 N01 (designed binder)
chain: B1 chain with P22Y, S30H, Q52H, S54A
B8: S308.5 N20 (designed binder)
chain: B1 chain with P22E, Y28H, S30G, Q52M, S54L
B9: SEQ ID NO 3 (designed binder)
chain: B1 chain with P22S, S30E, F49L, A51L, S54K, K59E, Y60M, L62D
B10: SEQ ID NO 5 (designed binder)
chain: B1 chain with P22L, S30W, Q52L, S54I, K59S

These binders were tested against T1, IL-4 receptor alpha on TF-1 cells (assay: cell-based or functional assay).

Row | Binder | IC50, IL-4-induced TF-1 cell proliferation (3H-thymidine incorporation) | IC50, IL-13-induced TF-1 cell proliferation (3H-thymidine incorporation)
1 | B1 | 3.6 nM | 14.8 nM
2 | B2 | 7.5 nM | 15.1 nM
3 | B3 | 3.8 nM | 7.4 nM
4 | B4 | 5.7 nM | 22.9 nM
5 | B5 | 9.1 nM | 35.9 nM
6 | B6 | 5.3 nM | 14.4 nM
7 | B7 | 4.4 nM | 17.7 nM
8 | B8 | 5.9 nM | 27.6 nM

Target: T1, IL-4 receptor alpha on TF-1 cells
Experiment: cell-based or functional assay
Remark: another data set of the same source

Row | Binder | IC50 (read off the curve), TF-1 cell proliferation, panel A (IL-4 by the legend paragraph 166)
9 | B2 | ~20 nM
10 | B3 | ~7 nM
11 | B4 | ~20 nM
12 | B8 | ~20 nM

What follows are binders tested against T2, IL-4 receptor alpha (assay: told in words in the legend of FIGS. 2A-2F; Biacore data in FIG. 4).

Row | Binder | binding result
13 | B9 | binds
14 | B10 | binds

Each binder was assayed against T3, IL-4 receptor alpha-Fc (R&D Systems) (assay: Biacore (SPR): about 400 RU IL-4 receptor alpha-Fc captured on a CM-5 chip through an anti-human-Fc antibody, mutein injected at a single concentration of 25 nM, 1:1 Langmuir fit).
Experimental: FIG. 4 depicts IC50 values from FIG. 3 and results of Biacore® measurements of the muteins of human tear lipocalin with affinity for IL-4 receptor alpha. Approximately 400 RU of IL-4 receptor alpha-Fc was captured on a CM-5 chip, which had previously been coated with an anti human-Fc monoclonal antibody. Subsequently, mutein in a single concentration of 25 nM was passed over the flowcell and changes in resonance units recorded. Reference signals from a flow cell that was equally treated apart from not having any IL-4 receptor alpha-Fc was subtracted and the resulting data fitted to a 1:1 Langmuir model using the BIAevaluation software. Due to the slow dissociation kinetics of the double referencing was used by subtracting the signals from a flow cell that was equally treated apart from not having any IL-4 receptor alpha-Fc and subtracting the signal from an experiment where only sample buffer was injected. The resulting data was fitted to a 1:1 Langmuir model with mass-transport limitation using the BIAevaluation software.
Affinity measurements were performed essentially as described in Example 9 of WO 2006/56464 with the modifications that approximately 400 RU of IL-4 receptor alpha-Fc (R&D Systems) was immobilized (instead of 2000 RU of human CTLA-4 or murine CTLA-4-Fc used as target in WO 2006/56464) and 100 μl of mutein was injected at a concentration of 25 nM (instead of 40 μl sample purified lipocalin muteins at concentrations of 5-0.3 μM as used in WO 2006/56464).

Row | Binder | Kd
15 | B1 | 0.023 nM
16 | B2 | 0.00132 nM
17 | B3 | 0.0201 nM
18 | B4 | 0.0724 nM
19 | B5 | 0.11 nM
20 | B6 | 0.0249 nM
21 | B7 | 0.0241 nM
22 | B8 | 0.0348 nM
